# Assay results taken from article PMC4336329 (PLoS ONE, 2015).
# About 2,200 (0.71%) of roughly 310,000 compounds showed an effect of 50% or more. The effect is printed as a negative number. This is one part of the list.
# Target: human ether-à-go-go-related gene (hERG) potassium channel (human, UniProt Q12809)
# Test: primary screen, population patch clamp on CHO cells stably expressing hERG
# human ether-à-go-go-related gene (hERG) potassium channel, sequence (Q12809 whole entry, looked up): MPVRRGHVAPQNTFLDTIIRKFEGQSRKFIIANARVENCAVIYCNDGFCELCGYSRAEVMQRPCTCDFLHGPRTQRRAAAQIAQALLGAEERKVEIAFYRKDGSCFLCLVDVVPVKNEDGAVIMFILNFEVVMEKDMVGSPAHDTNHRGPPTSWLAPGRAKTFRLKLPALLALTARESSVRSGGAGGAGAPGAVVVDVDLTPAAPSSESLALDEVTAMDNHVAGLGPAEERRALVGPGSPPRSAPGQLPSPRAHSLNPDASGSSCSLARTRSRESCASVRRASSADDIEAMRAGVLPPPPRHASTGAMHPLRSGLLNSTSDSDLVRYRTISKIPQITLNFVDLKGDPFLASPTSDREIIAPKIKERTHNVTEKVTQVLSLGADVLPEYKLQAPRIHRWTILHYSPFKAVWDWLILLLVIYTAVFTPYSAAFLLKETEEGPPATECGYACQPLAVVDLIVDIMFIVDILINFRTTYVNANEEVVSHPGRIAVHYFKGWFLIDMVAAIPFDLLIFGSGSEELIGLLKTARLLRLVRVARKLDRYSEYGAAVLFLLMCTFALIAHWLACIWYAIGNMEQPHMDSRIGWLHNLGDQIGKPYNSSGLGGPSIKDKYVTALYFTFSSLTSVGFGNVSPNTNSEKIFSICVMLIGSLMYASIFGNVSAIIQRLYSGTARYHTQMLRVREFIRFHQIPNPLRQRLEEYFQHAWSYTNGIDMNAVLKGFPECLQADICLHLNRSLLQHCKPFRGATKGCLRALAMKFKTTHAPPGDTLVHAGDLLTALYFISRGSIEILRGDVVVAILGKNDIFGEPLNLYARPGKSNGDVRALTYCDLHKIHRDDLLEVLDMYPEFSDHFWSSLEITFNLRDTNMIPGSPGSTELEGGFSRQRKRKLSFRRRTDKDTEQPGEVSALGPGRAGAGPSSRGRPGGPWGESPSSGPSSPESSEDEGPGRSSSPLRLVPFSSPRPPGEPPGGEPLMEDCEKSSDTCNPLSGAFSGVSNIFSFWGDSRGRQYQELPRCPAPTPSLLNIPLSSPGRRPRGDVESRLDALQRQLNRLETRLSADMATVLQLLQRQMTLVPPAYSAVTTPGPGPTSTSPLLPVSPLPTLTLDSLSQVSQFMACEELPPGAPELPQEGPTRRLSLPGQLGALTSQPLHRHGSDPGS
row,SMILES,"hERG current change (%, negative = inhibition) at 1uM [%]"
1,Cc1cc2nc(C)c(Cl)c(=O)n2[nH]1,10
2,COc1ccc(CCNC(=O)COC(=O)/C=C/c2ccc(OCC#N)c(OC)c2)cc1,10.3
3,CN(CC(=O)N1CCc2[nH]c3ccc(F)cc3c2C1)CC1OCCO1,6.59
4,Cc1cc(C(=O)N2CCN(S(=O)(=O)c3ccccc3)CC2)c(C)o1,6.79
5,O=C(NCc1ccc2c(c1)OCO2)c1cc(-c2ccccc2)c(N2CCOCC2)s1,14.1
6,Cc1onc(-c2ccccc2Cl)c1C(=O)NC(C)c1ccccc1 (stereo not drawn),14.8
7,O=c1cc(CSc2nnc(COc3ccc(Cl)cc3)o2)c2ccccc2[nH]1,1.76
8,Cc1ccc(S(=O)(=O)Nn2c(O)c(C=C3N=c4ccccc4=N3)sc2=S)cc1,5.45
9,Cc1cccc(-c2nn(-c3ccccc3)cc2C(=O)N(C)CC(=O)Nc2ccc(N3CCOCC3)cc2)c1,13.5
10,O=C(O)C(=O)O.OCCN1CCN(c2cc(-c3ccccc3)c3ccccc3n2)CC1,-17.6
11,Cc1nnc(SCc2ccc3c(c2)OCO3)s1,-3.47
12,O=C(COc1ccccc1)N1CCCCCCC1,5.76
13,CCc1nc2ccc(C(=O)N3CCN(c4cccc(OC)c4)CC3)cc2nc1CC,12.3
14,CC(C(=O)OCC(=O)c1ccc(Br)cc1)N1C(=O)C2C3CCC(C3)C2C1=O (stereo not drawn),5.8
15,COc1cc(C(=O)Nc2ccc3c(c2)OCCO3)ccc1OC(C)C,3.1
16,NC(=O)c1ccc(NC(=S)NCc2ccco2)cc1,7.56
17,Cl.OC(CN1CC=C(/C=C/c2ccc(Br)cc2)CC1)c1ccccc1 (stereo not drawn),8.59
18,O=c1c2cc(-c3ccccc3)sc2ncn1-n1cccc1,5.43
19,COc1ccc(-n2cc(CNCc3cnc4ccccn34)c(-c3cccc(F)c3)n2)cc1,7.09
20,O=C(CCl)N(Cc1ccccc1)c1ccccc1,8.67
21,CCN(CC)S(=O)(=O)c1cc(NC(=O)Cn2ncc(Cl)c(Cl)c2=O)ccc1C,10.1
22,Cc1ccc(C)c(N2CCN(C(=O)c3cc(S(=O)(=O)N4CCCC4)cn3C)CC2)c1,10.1
23,CCc1nc2nc(C)c(NS(=O)(=O)c3ccc(C)c(C)c3)c(=O)n2[nH]1,9.82

row,SMILES,"hERG current change (%, negative = inhibition) at 1uM [%]"
1,CN(CC(=O)Nc1ccccc1Cl)C(=O)c1cccc(S(=O)(=O)N2CCN(Cc3ccccc3)CC2)c1,11.8
2,CCN1CCCC1Cn1cnc2c([nH]c3ccc(C)cc32)c1=O (stereo not drawn),-63.4
3,CCOCc1c(C(=O)OCC(=O)Nc2ccccc2C(N)=O)oc2ccccc12,0.493
4,COc1cccc(/C=N/NC(=O)C(=O)N2CCCC2)c1OC,13.3
5,Cc1ccc(C(=O)/C=C/c2ccc3ncccc3c2)cc1,10.8
6,Cc1cc(Cl)ccc1OCCCC(=O)N1CCCCC1,-1.97
7,CCC(C)NS(=O)(=O)c1ccc(-c2csnn2)s1 (stereo not drawn),-4.09
8,COc1ccc2cc(Br)ccc2c1CC(=O)NCCCN1CCOCC1,0.112
9,CCCOc1ccc(C(=O)NCCC(=O)NCCCC(=O)OCC)cc1,-2.54
10,CCC(C)(C)NC(=O)c1ccc(S(=O)(=O)N(C)c2ccccc2OC)cc1,9.05
11,Nc1cc(N2CCNCC2)ccc1[N+](=O)[O-],5.5
12,C=CCNC(=O)N1CCC(c2nc3ccccc3s2)CC1,16.5
13,O=C1CSC(c2ccccc2F)N1c1ccccc1F (stereo not drawn),13
14,CCOC(=O)Cc1nnc(NC(=O)CSc2ncc(-c3ccccc3)nn2)s1,-14.3
15,Fc1ccccc1-c1cc2ccccc2cn1,7.59
16,CCN(CC)CCOC(=O)c1ccc(NC(=O)CCNC(=O)Cn2ccc3ccccc3c2=O)cc1,17.4
17,CCOC(=O)Nc1cccc(NC(=O)c2cc(OC)cc(OC)c2)c1,-3.87
18,CN(C1CCS(=O)(=O)C1)S(=O)(=O)c1cccs1 (stereo not drawn),-17.6
19,CC(N=Cc1nc(-c2ccccc2)oc1O)c1ccccc1 (stereo not drawn),6.15
20,CCOC(=O)C1CCN(S(=O)(=O)c2ccc(CNC(=O)c3ccccc3)s2)CC1,6.5
21,C=C1C(=O)O[C@@H]2[C@H]1[C@@H](OC(=O)/C(C)=C/C)C/C(C)=C\C(=O)/C=C(\C)[C@@H]2O,11
22,COC(=O)CSc1nnc(-c2ccc(S(=O)(=O)N3CCCC3)cc2)n1C,18.8
